In the RNAGym collection of RNA variant scans (doi:10.7554/elife.90254) one finds self-cleavage data, which are given here for 167 variants.

The source gives no read counts; variants with many changes may rest on few reads.

The labels stand for the following.
B1: LINE1-mini (parent)
chain: GGCAGAGCUCAACACAGCGUGGCAAAGUGGCUGUGGCUAGACUGCC

The variants in the data set derive from B1. Briefly: self-cleavage, relative activity (ratio to wild type); higher = more cleavage; in vitro, sequencing; the parent is a self-cleaving ribozyme.
Regarding C3A C8A A12U G19A U20C, the self-cleavage worked out at 0.22.

C3A A6G G44U: the self-cleavage worked out at 0.11. The value for C3A A6U G19A C23U A25G was 0.58; that for C3A A11C G21U was 0.05. Consider C3A C15A C37U A41C, for which the self-cleavage was 0.32.

With C3A C8A C31U A39U C42A, the self-cleavage amounted to 0.26. The value for C3A C15A A26C was 0.1; that for C3A A4G U9A A14U A26U U34C A41U was 0.2; that for C3A A26C C37U was 0.34. The value for C3A C8A A14C U28A was 0.06; that for C3A A4U G5U A11C A41G was 0.01. As to C3A A12G A24C G44U, the self-cleavage was determined as 0.07. The value for C3A C8U U20A G27A C46U was 0.38; that for C3A C13U A14C G22A was 2.09; that for C3A C10A G40A C46A was 0.02.

As to C3A A6G G33C, the self-cleavage is 0.03. The value for C3A A11G U20A G21A C23U A25C C45U was 0.02; that for C3A A16G G22C C31U G40U was 0.03; that for C3A C15A C31A was 0.35. The value for C3A A11G C31U C42G was 0.02.

C3A A6U G7A A39C: the self-cleavage is 0.45.

For the variant C3A A14G G19U G22C, the self-cleavage is 0.04.

For C3A C8U C10U C13G, the self-cleavage worked out at 0.09.

Regarding C3A C18A C46G, the self-cleavage worked out at 0.18. The value for C3A A11U G29C was 0; that for C3A A25C G36A C37U U43A was 0.12.

As for C3A C18G U43A, the self-cleavage came to 0.05. The value for C3A C8A C45G was 0.14; that for C3A A14C G29U was 0.06; that for C3A C10U A41G was 0.03. The value for C3A C8A A25U U43C was 0.95; that for C3A A6U C8G C10A U38C was 0.01; that for C3A A11C C18U was 0.04. The value for C3A C8A G17A C23A C31A U34C A41C was 0.14.

Regarding C3A C8A C15A G40U, the self-cleavage was determined as 0.59. The value for C3A C23A G35C was 1.75; that for C3A C31G C42A G44U was 0.14. The value for C3A C10A G22A U38A was 0.03; that for C3A C10G C31A U34C was 0.01; that for C3A C18G A25C C31G was 0.08. The value for C3A C10G A14G A26G U32A was 0.02.

In the case of C3A A11U A12C A14C A16U G22A A39C, the self-cleavage stood at 0.01. The value for C3A A4C C15A A24U G33A A39U G40U was 0.08. The value for C3A C31G G40U C45U was 0.13; that for C3A A24G C45U was 0.26. The value for C3A C13G U32C U38A was 0.11; that for C3A A6C G19A A26U A39U C42A was 0.01. On to C3A C18U C46A, for which the self-cleavage came to 0.07. The value for C3A C10A U28C was 0.07. As for C3A A4C G27C U32G G44C, the self-cleavage was found to be 0.32. The value for C3A A11U G29U C45G C46U was 0. The value for C3A A4G C18U G30U was 0.06; that for C3A A6G U43A was 0.11. The value for C3A C23U G33A C45U was 0.37; that for C3A C15U G17A G22A C23G C46U was 0.1. In the case of C3A C8G G36U, the self-cleavage is 0.25.

As for C3A C8G G36C, the self-cleavage is 0.18. The value for C3A C13U A24G G40U was 0.57. As to C3A C8A A41G, the self-cleavage was 0.33. The value for C3A C8G A12G A16U G19C G27C was 0. The value for C3A C18G G40U was 0.19. As to C3A C8G U9C G21A, the self-cleavage came to 0.07. The value for C3A A6C C18A G19U A25G was 0.09; that for C3A C8A A14U C18U U20A U28G C42G was 0.13; that for C3A A6C C23U G44C was 0.75. The value for C3A C23G G29C was 0.1; that for C3A C10A A26C was 0.04.

In the case of C3A C10A C15A G22U, the self-cleavage turned out to be 0.07.

Take C3A C8A C10A A14C A16C G33U C46G: the self-cleavage came to 0.03.

With C3A A14U G22U, the self-cleavage was 0.85. The value for C3A A25U G40U was 0.08; that for C3A C8U G40A A41C was 0.06.

C3A C10A C18A C23G G35C: the self-cleavage is 0.03. As to C3A A4G A16C, the self-cleavage is 0. The value for C3A C8U G19C A24C was 0.14; that for C3A A12G U34C C42A was 0.89; that for C3A C18A G40C was 0.03.

For C3A A16U G35U A39U, the self-cleavage is 0.04. Regarding C3A A11G C13G, the self-cleavage amounted to 0.03. The value for C3A A12U C15A G22U G27A was 0.25; that for C3A C13A A16U G21U was 0.52. The value for C3A A4G C45U was 1.18; that for C3A C8A G36A was 1.9. C3A C8G A26U: the self-cleavage was 0.05. The value for C3A C10A A26C G30C G35A G36U was 0.03. The value for C3A A6G A14U C15U G35U was 0.22. The value for C3A C8A G17C G22A C31U was 0.32; that for C3A A4U C18G G29A was 0.14.

For C3A A11G G19U U28G, the self-cleavage is 0.03. The value for C3A A11C C23G was 0.02; that for C3A A4U A14U G29U was 0.1; that for C3A C13U G29C C31U C37U was 0.87.

As to C3A A11G A14C, the self-cleavage came out at 0.02. The value for C3A A11C G33A C45G was 0.03. The value for C3A C8U C13A A14U was 0.63; that for C3A C10U A24U was 0.11; that for C3A C8G C18U G19U was 1.84.

In the case of C3A C15U A26G C31U U34C, the self-cleavage came out at 0.24. As to C3A A11C G33U C37G, the self-cleavage came out at 0.09. The value for C3A C8G C18U A24U A25G was 0.28; that for C3A C10U U28A C31U C45G was 0.07; that for C3A C10U G22U G33A C37G was 0.05. The value for C3A C18A C31G G36U U38G C42A was 0.01. The value for C3A C23U C45G was 0.28; that for C3A C8A U32G was 0.15; that for C3A A12G C37G A39C was 0.67. On to C3A C10A G22A G30C, for which the self-cleavage amounted to 0.02. The value for C3A C10A C15G was 0.08; that for C3A C10A A26U G27C was 0.06; that for C3A A11C C31A was 0.01. The value for C3A A6C G33U G40A was 0.04; that for C3A A12C C15A C18A was 0.06; that for C3A A14G A39U was 0.06. The value for C3A A14U C15U G21U A25G G29U G35U C42A was 0.06; that for C3A A6U C10U A14C G19U A41U was 0.05; that for C3A A4U A14U U43A C45A C46G was 0.05.

For the variant C3A A6G A14G, the self-cleavage was found to be 0.22. The value for C3A A4C C10A C18A G19U G27U G33C A41C was 0; that for C3A A4C G27U U28A G33U C42A was 0.49; that for C3A C8A G35U U38G A39G C45U was 1.19. Regarding C3A C18G C31A U38C, the self-cleavage is 0.04. The value for C3A A24G A39G was 0.44; that for C3A A4U A16G was 0.04; that for C3A A26G C31A G40U A41G C42U was 0.03.

As for C3A C15G C37G G44U, the self-cleavage was found to be 0.01. For the variant C3A A25G G27U, the self-cleavage stood at 0.19. The value for C3A C10A A14G G19U G27C G36C U38A was 0.01. The value for C3A A4U G7U G19A C23U G29U was 0.04; that for C3A A25G G30U C37A was 0.16. The value for C3A A6U G29A was 0.17.

C3A A12U C18A: the self-cleavage turned out to be 0.62. With C3A A6C A26G C37U G40U, the self-cleavage stood at 0.2.

Consider C3A C15A G17U G21A G27A, for which the self-cleavage was 0.13. The value for C3A C8U G27A was 0.31. The value for C3A A11G A12G G22C was 0.02.

As for C3A A12G A24G A41G U43G, the self-cleavage came to 0.04. As to C3A A24C U38G, the self-cleavage is 0.07. The value for C3A A16C C31U G33U G36A was 0.02. For the variant C3A A24U G40A A41C, the self-cleavage amounted to 0.14.

Turning to C3A C13G U20A G21U G22U G36A, the self-cleavage stood at 0.67.

Regarding C3A C13U C15U, the self-cleavage came to 0.24.

As to C3A A4C C10U G29C, the self-cleavage worked out at 0.05. As for C3A C10U C18G G29C G40U, the self-cleavage amounted to 0.09. The value for C3A A12U G29C was 0.03; that for C3A A4G G7U C13U U28A G36C was 1.21. The value for C3A A14C U20C C23A was 0.03. The value for C3A C10A G21U was 0.12; that for C3A A11C C42G was 0.03. Take C3A A6G A24G U32G: the self-cleavage stood at 0.09. The value for C3A A24G A25U G30U was 0.39; that for C3A A4U C15G C46A was 0.12; that for C3A A4G A6G G17A C45A was 0.1.

As for C3A A4G C10A U32C, the self-cleavage was 0.04.

Regarding C3A C8U G40C, the self-cleavage turned out to be 0.17. The value for C3A C8U G40U was 0.35. On to C3A A6G C15U C37U A41U, for which the self-cleavage was 0.14. The value for C3A A6U G35C was 0.36. The value for C3A A6C U9A C42A was 0.24.

In the case of C3A A4U G17A G19C, the self-cleavage was 0.08. The value for C3A A12C A24U U28A A41G G44A was 0.03; that for C3A C10A C15A G17A G30U was 0.08. The value for C3A A6G A14U A39U was 0; that for C3A C10A C45A was 0.02; that for C3A C10A G30U C31A was 0.01. The value for C3A A6G C23G C37U was 0.04; that for C3A A12C G19C C45G was 0.02; that for C3A C10G C15G G44C was 0.03.
